How the values were obtained:
Assay in all cases: cell-based or functional assay
[1] = target: CDC2/cyclin B complex (UniProt P06493)
[2] = target: CDK2/cyclin A complex (UniProt P24941)
[3] = target: CDK4/cyclin D1 complex (UniProt P11802 1-303; P24385)
[4] = target: CDK2/cyclin E complex (UniProt P24941)

Sequence of UniProt P11802 (P11802 whole entry, chain 1 of 2): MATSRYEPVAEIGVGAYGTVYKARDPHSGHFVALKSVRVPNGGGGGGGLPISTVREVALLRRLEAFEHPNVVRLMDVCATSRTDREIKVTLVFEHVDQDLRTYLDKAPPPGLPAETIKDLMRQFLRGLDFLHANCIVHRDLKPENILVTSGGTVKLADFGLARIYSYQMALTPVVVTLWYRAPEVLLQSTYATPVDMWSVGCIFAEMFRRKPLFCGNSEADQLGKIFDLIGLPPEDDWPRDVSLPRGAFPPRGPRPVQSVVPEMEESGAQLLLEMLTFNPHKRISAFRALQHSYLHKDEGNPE
Sequence of UniProt P11802 (P24385 whole entry, chain 2 of 2, further chain): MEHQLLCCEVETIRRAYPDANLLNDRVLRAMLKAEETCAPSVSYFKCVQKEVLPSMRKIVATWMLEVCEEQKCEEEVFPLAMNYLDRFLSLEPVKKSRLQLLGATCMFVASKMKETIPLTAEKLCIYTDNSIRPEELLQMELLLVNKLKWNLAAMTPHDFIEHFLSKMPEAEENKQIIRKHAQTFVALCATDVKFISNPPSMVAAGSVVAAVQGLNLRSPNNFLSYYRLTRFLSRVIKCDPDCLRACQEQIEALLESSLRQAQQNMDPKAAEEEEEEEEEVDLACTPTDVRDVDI
Sequence of UniProt P06493 (P06493 whole entry, one chain of several): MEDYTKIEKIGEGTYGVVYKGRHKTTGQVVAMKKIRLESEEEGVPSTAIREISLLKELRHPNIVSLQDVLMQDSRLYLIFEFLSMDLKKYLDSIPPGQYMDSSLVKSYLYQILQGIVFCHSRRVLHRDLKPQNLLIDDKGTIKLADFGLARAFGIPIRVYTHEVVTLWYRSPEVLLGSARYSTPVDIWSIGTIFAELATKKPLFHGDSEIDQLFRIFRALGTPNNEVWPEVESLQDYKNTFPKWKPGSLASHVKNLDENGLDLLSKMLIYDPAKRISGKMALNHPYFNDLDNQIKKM

B1: p27-p16 fusion protein (other)
chain: [letters of about 200 residues left out]MEPAAGSSMEPSADWLATAAARGRVEEVRALLEAGALPNAPNSYGRRPIQVMMMGSARVAELLLLHGAEPNCADPATLTRPVHDAAREGFLDTLVVLHRAGARLDVRDAWGRLPVDLAEELGHRDVARYLRAAAGGTRGSNHARIDAAEGPSDIPD
notes: Tags (6xHis, HA) may be present at the N-terminus; expressed as GST fusion, GST removed by thrombin; not shown: junction: (Gly4Ser)3 hinge in W3, none in W4
IC50, in vitro kinase activity [1]: 15 nM | IC50, in vitro kinase activity [2]: 25 nM | IC50, in vitro kinase activity [3]: 25 nM | IC50, in vitro kinase activity [4]: 30 nM
